Experimental data published in article PMC5006159, “Structural basis for early-onset neurological disorders caused by mutations in human selenocysteine synthase” (Scientific Reports, 2016).
No constants are given. Whether binding was seen depends on the method and setting. Some entries that bind do so weakly or less than the wild type.

By UniProt entry, the sequences of proteins in these tests, tags left out.
UniProt P0A6F5: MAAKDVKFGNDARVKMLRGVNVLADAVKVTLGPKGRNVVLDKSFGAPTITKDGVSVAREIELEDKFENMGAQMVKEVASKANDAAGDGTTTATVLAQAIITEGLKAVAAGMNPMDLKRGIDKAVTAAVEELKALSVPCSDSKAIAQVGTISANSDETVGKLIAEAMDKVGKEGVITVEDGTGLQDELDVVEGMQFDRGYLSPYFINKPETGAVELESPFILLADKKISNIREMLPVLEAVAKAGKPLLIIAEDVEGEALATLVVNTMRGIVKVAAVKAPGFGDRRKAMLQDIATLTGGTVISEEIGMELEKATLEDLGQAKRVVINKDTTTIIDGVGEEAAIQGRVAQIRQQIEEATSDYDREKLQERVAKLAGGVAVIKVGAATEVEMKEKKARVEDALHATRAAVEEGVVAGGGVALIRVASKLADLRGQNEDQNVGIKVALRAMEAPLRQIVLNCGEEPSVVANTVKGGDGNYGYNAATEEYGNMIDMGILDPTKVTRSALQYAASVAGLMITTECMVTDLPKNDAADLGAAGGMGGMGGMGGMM

Key:
[1] = molecular target: T1, human SepSecS Tyr334Cys variant (human) (UniProt Q9HD40); assay: SEC; His-tagged SepSecS purified from the soluble fraction of E. coli and run on S200 SEC; peaks analysed by SDS-PAGE and Western blot with anti-His and anti-GroEL; GroEL of the host co-purified
T1 sequence: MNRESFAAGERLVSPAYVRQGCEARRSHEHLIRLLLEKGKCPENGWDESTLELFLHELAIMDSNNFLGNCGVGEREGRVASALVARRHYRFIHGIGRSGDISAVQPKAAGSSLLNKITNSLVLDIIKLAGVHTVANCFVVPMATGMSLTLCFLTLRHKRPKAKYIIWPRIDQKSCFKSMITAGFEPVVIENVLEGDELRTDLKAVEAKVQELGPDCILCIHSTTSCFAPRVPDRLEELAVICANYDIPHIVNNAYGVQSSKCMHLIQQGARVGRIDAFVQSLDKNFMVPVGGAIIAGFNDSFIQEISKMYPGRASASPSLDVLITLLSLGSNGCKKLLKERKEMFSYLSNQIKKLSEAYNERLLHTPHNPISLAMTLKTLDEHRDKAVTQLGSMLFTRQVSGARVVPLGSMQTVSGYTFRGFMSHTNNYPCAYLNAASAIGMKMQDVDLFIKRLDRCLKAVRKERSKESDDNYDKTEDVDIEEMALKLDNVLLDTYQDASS

[2] = molecular target: T2, human SepSecS Ala239Thr variant (human) (UniProt Q9HD40); assay: as above
T2 sequence: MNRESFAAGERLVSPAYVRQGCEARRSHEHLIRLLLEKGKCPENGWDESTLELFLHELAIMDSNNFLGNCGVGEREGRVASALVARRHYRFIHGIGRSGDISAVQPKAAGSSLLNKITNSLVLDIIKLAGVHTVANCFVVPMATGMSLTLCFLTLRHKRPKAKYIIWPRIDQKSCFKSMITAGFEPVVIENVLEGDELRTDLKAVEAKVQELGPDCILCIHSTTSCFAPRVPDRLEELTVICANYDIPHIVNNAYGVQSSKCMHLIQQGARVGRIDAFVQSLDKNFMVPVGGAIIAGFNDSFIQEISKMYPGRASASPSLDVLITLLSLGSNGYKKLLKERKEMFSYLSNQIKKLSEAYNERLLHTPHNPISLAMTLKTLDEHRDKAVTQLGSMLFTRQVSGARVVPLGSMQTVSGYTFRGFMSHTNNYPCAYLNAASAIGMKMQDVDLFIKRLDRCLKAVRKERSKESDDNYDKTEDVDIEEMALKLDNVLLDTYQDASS

[3] = molecular target: T3, human O-phosphoseryl-tRNASec:selenocysteinyl-tRNASec synthase (SepSecS), wild type (human) (UniProt Q9HD40); assay: as above
T3 sequence: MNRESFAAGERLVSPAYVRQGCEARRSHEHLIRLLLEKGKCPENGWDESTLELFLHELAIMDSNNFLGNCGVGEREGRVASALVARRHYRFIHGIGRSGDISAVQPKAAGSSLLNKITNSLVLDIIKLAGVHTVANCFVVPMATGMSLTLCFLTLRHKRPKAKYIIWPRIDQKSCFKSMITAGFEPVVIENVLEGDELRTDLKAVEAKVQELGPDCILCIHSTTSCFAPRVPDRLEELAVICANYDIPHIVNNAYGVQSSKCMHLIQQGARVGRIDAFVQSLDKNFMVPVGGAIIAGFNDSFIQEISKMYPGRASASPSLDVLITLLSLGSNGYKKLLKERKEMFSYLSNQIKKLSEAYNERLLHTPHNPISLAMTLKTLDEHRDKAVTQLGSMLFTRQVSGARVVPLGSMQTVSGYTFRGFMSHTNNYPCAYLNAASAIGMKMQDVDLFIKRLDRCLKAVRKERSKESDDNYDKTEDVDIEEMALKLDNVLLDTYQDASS

[4] = molecular target: T4, human SepSecS Thr325Ser variant (human) (UniProt Q9HD40); assay: as above
T4 sequence: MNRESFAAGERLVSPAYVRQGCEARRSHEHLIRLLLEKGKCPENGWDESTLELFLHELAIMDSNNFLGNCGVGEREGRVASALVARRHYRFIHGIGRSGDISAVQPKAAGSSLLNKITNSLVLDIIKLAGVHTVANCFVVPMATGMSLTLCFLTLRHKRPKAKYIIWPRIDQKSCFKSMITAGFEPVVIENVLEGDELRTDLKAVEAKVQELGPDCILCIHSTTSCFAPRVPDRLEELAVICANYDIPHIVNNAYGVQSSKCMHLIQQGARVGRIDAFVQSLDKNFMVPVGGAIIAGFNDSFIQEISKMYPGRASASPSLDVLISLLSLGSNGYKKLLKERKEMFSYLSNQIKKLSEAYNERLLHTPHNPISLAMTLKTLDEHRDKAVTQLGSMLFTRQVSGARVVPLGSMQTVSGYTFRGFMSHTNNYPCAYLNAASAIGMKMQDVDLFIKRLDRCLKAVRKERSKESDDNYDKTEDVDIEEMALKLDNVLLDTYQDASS

[5] = molecular target: T1, human SepSecS Tyr334Cys variant (human); assay: native gel or EMSA; blue-native PAGE of the SEC peaks, Western blot with anti-GroEL and anti-His; complex with host GroEL (~720 kDa band) formed in the expression host
[6] = molecular target: T2, human SepSecS Ala239Thr variant (human); assay: as above
[7] = molecular target: T3, human O-phosphoseryl-tRNASec:selenocysteinyl-tRNASec synthase (SepSecS), wild type (human); assay: as above
[8] = molecular target: T2, human SepSecS Ala239Thr variant (human); assay: native gel or EMSA; 6% blue-native Tris-glycine PAGE of the SEC peaks, Coomassie stain and anti-His blot; self-association (tetramer band between 242-480 kDa); both purified
[9] = molecular target: T2, human SepSecS Ala239Thr variant (human); assay: SEC; S200 SEC of the soluble, purified His-tagged SepSecS samples; tetramer peak at ~70 min, 'early' peak at ~55 min; self-association; both purified

bacterial chaperonin GroEL (from UniProt P0A6F5 1-548)
binding [1]: binds | binding [2]: binds | binding [3]: no binding | binding [4]: binds | binding [5]: binds | binding [6]: binds | binding [7]: no binding

B1: human SepSecS Ala239Thr variant (enzyme, UniProt Q9HD40 1-501)
chain: MNRESFAAGERLVSPAYVRQGCEARRSHEHLIRLLLEKGKCPENGWDESTLELFLHELAIMDSNNFLGNCGVGEREGRVASALVARRHYRFIHGIGRSGDISAVQPKAAGSSLLNKITNSLVLDIIKLAGVHTVANCFVVPMATGMSLTLCFLTLRHKRPKAKYIIWPRIDQKSCFKSMITAGFEPVVIENVLEGDELRTDLKAVEAKVQELGPDCILCIHSTTSCFAPRVPDRLEELTVICANYDIPHIVNNAYGVQSSKCMHLIQQGARVGRIDAFVQSLDKNFMVPVGGAIIAGFNDSFIQEISKMYPGRASASPSLDVLITLLSLGSNGYKKLLKERKEMFSYLSNQIKKLSEAYNERLLHTPHNPISLAMTLKTLDEHRDKAVTQLGSMLFTRQVSGARVVPLGSMQTVSGYTFRGFMSHTNNYPCAYLNAASAIGMKMQDVDLFIKRLDRCLKAVRKERSKESDDNYDKTEDVDIEEMALKLDNVLLDTYQDASS
binding [8]: no binding | binding [9]: no binding
